# Sequences with one replicate were seen in a single cluster, so their values are uncertain.
# Tested on: ATP
# Test: switch fluorescence ratio, 500 uM ATP over buffer (Cy3 cluster intensity, sum of 5 cycles each) (fold (ratio)); higher = stronger signal-on switching upon ATP binding; sequences stand for … in TCGTCGGCAGCGTCAGATGTGTATAAGAGACAGTTTTTTTTTTTTTTTTTTTTTTTTT…TC
# Settings: aptamer strand: ATP DNA aptamer (quencher-CACCTGGGGGAGTATTGCGGAGGAAGG + anchor), 100 nM annealed; ATP concentration: 500 uM; one replicate
# Method in brief: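 Clusters with intensities outside 100-1000 RFU were excluded. The remaining Cy3-labelled switching-strand clusters on a modified Illumina MiSeq flow-cell had been annealed to 100 nM quencher-labelled ATP aptamer and imaged in selection buffer, then after 15 min with 500 uM ATP at 22 °C, for five cycles separated by NaOH stripping and re-annealing. The fluorescence ratio, averaged per switch-domain sequence, is each cluster's summed target-cycle Cy3 intensity over its summed buffer-cycle Cy3 intensity.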
# 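Note: ATP exposure 15 min at 22 °C before imaging.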
row,Sequence,switch fluorescence ratio
1,GTCGCGGGGC,1.03
2,GTCGCTTCGA,0.979
3,GTCGGACAGC,1.04
4,GTCGGCCGGC,1.02
5,GTCGGCCTGT,1.02
6,GTCGGGATGT,1.02
7,GTCGGGCACT,0.953
8,GTCGGTTCGG,0.944
9,GTCGTACCAG,0.97
10,GTCGTATGTA,0.986
11,GTCGTCGAGT,1.04
12,GTCGTTATAT,1.06
13,GTCGTTTTAC,1.04
14,GTCTAATAGG,0.999
15,GTCTACTACC,1.19
16,GTCTATCCTA,0.986
17,GTCTATGCGA,1.04
18,GTCTCAGCGG,0.994
19,GTCTCATAGC,0.978
20,GTCTCCCGAT,1.04
21,GTCTGATTCC,1.01
22,GTCTGCTGAA,1.06
23,GTCTGGCTTT,1.04
24,GTCTGGTTTT,0.974
25,GTCTTAGGGG,1
26,GTCTTAGTT,0.982

row,Sequence,switch fluorescence ratio
1,GTCTTCCGTG,0.996
2,GTCTTGGGAG,1
3,GTCTTTCCGT,0.977
4,GTCTTTGGTG,1.06
5,GTGAAAGCA,1.04
6,GTGAACCATG,1.04
7,GTGAACGTAC,1.7
8,GTGAACTGCC,1.12
9,GTGAAGTCGC,0.925
10,GTGAATTGTA,0.992
11,GTGAATTTGC,0.992
12,GTGACAAGGG,0.974
13,GTGACCCATC,1.05
14,GTGACGCAAG,1.1
15,GTGACGGAGG,0.982
16,GTGACTCGG,0.984
17,GTGAGACA,1.01
18,GTGAGACGA,1
19,GTGAGTCAC,0.95
20,GTGAGTGAGG,1.02
21,GTGATAGTAG,1
22,GTGATATTTG,1.01
23,GTGATCACTA,0.999
24,GTGATGGGGC,1.15
25,GTGCAAAAAG,0.966
26,GTGCAAAGGT,0.997

row,Sequence,switch fluorescence ratio
1,GTGCAACGGG,0.967
2,GTGCAAGTAT,1.01
3,GTGCAATAGC,1.92
4,GTGCACGATG,0.987
5,GTGCACGTGC,1.04
6,GTGCAGGTTC,0.985
7,GTGCATGAAG,0.984
8,GTGCATGGCA,1.04
9,GTGCCAAGAC,2.26
10,GTGCCATAAG,0.998
11,GTGCCCCACG,0.973
12,GTGCCCTTCA,1.04
13,GTGCCGGCGC,1.04
14,GTGCCGTA,0.983
15,GTGCCTGACT,1.02
16,GTGCCTTTTG,0.99
17,GTGCGGAAGA,1.05
18,GTGCGGCGCC,0.944
19,GTGCGTATGT,0.998
20,GTGCGTCCAA,0.967
21,GTGCTAAATC,1.09
22,GTGCTATACA,1.03
23,GTGCTCATGC,0.995
24,GTGCTGGGAG,0.981
25,GTGCTGTTTC,0.959
26,GTGCTTAGCT,0.975

row,Sequence,switch fluorescence ratio
1,GTGGAAATGC,1.13
2,GTGGAACTCC,1.02
3,GTGGAAGCAT,1.01
4,GTGGACACGA,0.965
5,GTGGACTAAG,0.986
6,GTGGACTGAA,0.982
7,GTGGACTGCG,0.961
8,GTGGAGCCCG,0.984
9,GTGGAGCGAC,1.03
10,GTGGATGCTC,0.991
11,GTGGATGTCA,1.01
12,GTGGATTCCG,0.975
13,GTGGATTCTC,1.01
14,GTGGCAAACT,1.06
15,GTGGCAAATT,1.07
16,GTGGCACGTT,0.933
17,GTGGCAGTTG,1.01
18,GTGGCCACTT,0.976
19,GTGGCGGCTT,1.01
20,GTGGCGTATC,0.992
21,GTGGCTTCTT,1.02
22,GTGGGAATGC,1.19
23,GTGGGACCTC,1
24,GTGGGACCTG,0.956
25,GTGGGACGGA,1.21
26,GTGGGACTGG,1.03

row,Sequence,switch fluorescence ratio
1,GTGGGATATC,0.971
2,GTGGGCATCT,0.964
3,GTGGGCATTG,0.972
4,GTGGGCCAAT,0.977
5,GTGGGCTAGG,0.986
6,GTGGGGATGA,1.01
7,GTGGGGTTCA,0.981
8,GTGGGGTTTA,0.995
9,GTGGGTCTCC,1.01
10,GTGGTAATTC,1.01
11,GTGGTAGCGT,0.992
12,GTGGTATTTA,1.01
13,GTGGTCACAT,1.01
14,GTGGTCCCAC,0.985
15,GTGGTGCTCT,1.03
16,GTGGTTACAT,0.999
17,GTGGTTCGC,1.04
18,GTGGTTTCAG,1
19,GTGGTTTGCG,0.904
20,GTGTAAAGAG,1
21,GTGTAACGGT,0.995
22,GTGTAATGG,1
23,GTGTAATGTG,1.04
24,GTGTACAAGT,0.941
25,GTGTACGGGC,0.982
26,GTGTACTTCC,1.55

row,Sequence,switch fluorescence ratio
1,GTGTAGAGAA,0.981
2,GTGTATCACA,1.02
3,GTGTATGTGC,0.936
4,GTGTCATCGA,1.03
5,GTGTCATCGT,0.976
6,GTGTCGATCG,1.06
7,GTGTCGATTG,0.968
8,GTGTCGGAAT,1.01
9,GTGTCGGGGC,1.02
10,GTGTCTGATG,0.998
11,GTGTGAAAAA,0.985
12,GTGTGAAAGT,0.966
13,GTGTGAATAA,0.991
14,GTGTGACTTT,0.998
15,GTGTGCCCAG,0.979
16,GTGTGCGCTA,1.02
17,GTGTGCGGCC,1.01
18,GTGTGCTGT,1.01
19,GTGTGCTTTC,1.01
20,GTGTGGGATT,0.982
21,GTGTGTATTA,1.01
22,GTGTGTCA,0.961
23,GTGTGTGCGA,1
24,GTGTGTTGCA,0.974
25,GTGTTAGGAA,0.979
26,GTGTTATAGA,1.01

row,Sequence,switch fluorescence ratio
1,GTGTTCAAGT,0.979
2,GTGTTCGAT,0.982
3,GTGTTCTGCT,1.04
4,GTGTTTATTA,0.962
5,GTGTTTGCT,0.94
6,GTGTTTGGCA,0.984
7,GTGTTTTCTA,1.04
8,GTGTTTTGT,1.01
9,GTTAAAGGAG,1.03
10,GTTAAAGGC,0.948
11,GTTAAATGGG,1.06
12,GTTAACTCGT,0.989
13,GTTAACTTCG,1.03
14,GTTAAGTGTT,1
15,GTTAATCACA,1.02
16,GTTAATGCTT,0.969
17,GTTACACCTT,1.06
18,GTTACAGCTC,1.07
19,GTTACAGGTT,1.03
20,GTTACATCTC,1.06
21,GTTACCCCTA,1.22
22,GTTACCTACA,1.23
23,GTTACTCTT,1.03
24,GTTACTTCAT,1.01
25,GTTAGAACAG,0.98
26,GTTAGACCGA,1.03

row,Sequence,switch fluorescence ratio
1,GTTAGAGAGA,1.04
2,GTTAGATAGA,1.02
3,GTTAGCAAGA,1.23
4,GTTAGCCCCG,1.04
5,GTTAGTAATG,0.995
6,GTTATACATC,1.03
7,GTTATAGGGA,1.04
8,GTTATAGTGC,0.988
9,GTTATATCC,0.977
10,GTTATATGCA,1.01
11,GTTATCGACG,1.05
12,GTTATTAGAA,0.942
13,GTTATTTCGA,0.991
14,GTTATTTGT,1.13
15,GTTCAAACGT,1.03
16,GTTCACACCT,1.12
17,GTTCACGCTG,0.955
18,GTTCACTGGA,0.989
19,GTTCACTTGA,1.03

# — the supplement of paper PMC10126150
